Results: paper PMC4900556, “Connexin43 Forms Supramolecular Complexes through Non-Overlapping Binding Sites for Drebrin, Tubulin, and ZO-1” (PLoS ONE, 2016)
No constants are given. Whether binding was seen depends on the method and setting. Some binding calls cover weakened binding; strength is not graded here.

By UniProt entry, the sequences of proteins in these tests, tags left out. Where a name states a change or a piece, a line headed by the entry shows the natural chain unless it says otherwise. Chains listed by the source or under a name are the forms on record and can include a tag or linker. Residues count along the entry.
GST-Cx43-CT^234-382 WT (P08050, residues 234-382): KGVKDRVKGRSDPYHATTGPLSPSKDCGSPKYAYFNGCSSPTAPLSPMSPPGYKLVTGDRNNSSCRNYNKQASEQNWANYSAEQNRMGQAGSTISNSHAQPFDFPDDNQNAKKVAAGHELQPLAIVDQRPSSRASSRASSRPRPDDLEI
GST-tagged Cx43CT residues 316–382 (GST-Cx43-CT^316-382) (P08050, residues 316-382): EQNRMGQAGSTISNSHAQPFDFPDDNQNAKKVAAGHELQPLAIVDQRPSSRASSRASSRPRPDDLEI
GST-Cx43-CT^240-382 Δ341–360 (P08050, form named): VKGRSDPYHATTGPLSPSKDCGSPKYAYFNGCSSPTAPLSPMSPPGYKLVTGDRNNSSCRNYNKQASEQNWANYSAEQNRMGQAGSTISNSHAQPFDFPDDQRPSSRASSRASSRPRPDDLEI
GST-Cx43-CT^240-382 Δ281–300 (P08050, form named): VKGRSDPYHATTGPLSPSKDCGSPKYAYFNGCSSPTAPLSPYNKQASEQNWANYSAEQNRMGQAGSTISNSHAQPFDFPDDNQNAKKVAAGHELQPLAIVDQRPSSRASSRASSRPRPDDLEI
GST-Cx43-CT^240-382 Δ301–320 (P08050, form named): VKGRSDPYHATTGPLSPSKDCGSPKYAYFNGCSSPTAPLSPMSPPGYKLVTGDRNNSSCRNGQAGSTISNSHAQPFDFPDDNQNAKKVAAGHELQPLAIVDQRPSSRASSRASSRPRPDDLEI
GST-Cx43-CT^244-382 Δ261–280 (P08050, form named): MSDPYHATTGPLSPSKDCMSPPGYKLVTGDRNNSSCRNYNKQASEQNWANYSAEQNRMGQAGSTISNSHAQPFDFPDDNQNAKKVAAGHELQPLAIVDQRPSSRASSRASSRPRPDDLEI
UniProt Q07157, residues 186-262: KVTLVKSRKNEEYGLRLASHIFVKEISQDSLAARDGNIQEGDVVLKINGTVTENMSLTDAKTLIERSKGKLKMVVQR
UniProt P02787, residues 20-698: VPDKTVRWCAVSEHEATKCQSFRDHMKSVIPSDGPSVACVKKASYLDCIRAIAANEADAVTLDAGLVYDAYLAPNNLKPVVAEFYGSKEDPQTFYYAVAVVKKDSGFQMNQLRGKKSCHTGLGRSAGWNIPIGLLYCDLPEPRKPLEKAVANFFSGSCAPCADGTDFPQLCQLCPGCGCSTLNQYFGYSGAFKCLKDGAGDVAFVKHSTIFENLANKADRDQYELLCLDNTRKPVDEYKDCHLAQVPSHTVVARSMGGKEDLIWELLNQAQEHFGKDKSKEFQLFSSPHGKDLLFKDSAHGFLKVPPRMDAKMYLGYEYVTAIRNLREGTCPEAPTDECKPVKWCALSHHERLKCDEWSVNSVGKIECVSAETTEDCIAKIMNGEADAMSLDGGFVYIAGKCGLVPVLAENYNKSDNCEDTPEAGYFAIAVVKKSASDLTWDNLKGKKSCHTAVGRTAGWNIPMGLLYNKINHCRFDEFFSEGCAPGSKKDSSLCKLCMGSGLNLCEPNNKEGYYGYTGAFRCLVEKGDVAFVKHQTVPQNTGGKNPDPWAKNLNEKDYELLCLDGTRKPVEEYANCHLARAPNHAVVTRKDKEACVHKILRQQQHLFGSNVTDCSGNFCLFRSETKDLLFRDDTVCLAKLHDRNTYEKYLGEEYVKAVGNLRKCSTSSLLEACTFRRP

Legend:
[1] = biological target: Cx43-CT residues 234–382 (Cx43-CT^234-382), untagged, from His-Cx43-CT^234-382 (UniProt P08050); test: co-IP; as a3, but Cx43-CT held by the mouse anti-Cx43 252–270 antibody (m252-270) instead of IF1; both purified
[2] = biological target: Cx43-CT residues 234–382 (Cx43-CT^234-382), untagged, from His-Cx43-CT^234-382 (UniProt P08050); test: co-IP; IF1 anti-Cx43 antibody (aa 360–382) on protein A agarose beads holds the Cx43-CT construct as bait; purified prey added; 1% BSA in 1X PBS, overnight; SDS-PAGE with SYPRO-Ruby staining (tubulin-rhodamine detected by UV); both purified
[3] = biological target: Cx43-CT residues 234–382 (Cx43-CT^234-382), untagged, from His-Cx43-CT^234-382 (UniProt P08050); test: condition: only with Cx43-CT held by the competing m252-270 antibody; co-IP; as a3, but Cx43-CT held by the mouse anti-Cx43 252–270 antibody (m252-270) instead of IF1; both purified
[4] = biological target: GST-Cx43-CT^240-382 Δ341–360 (UniProt P08050); test: as above
GST-Cx43-CT^234-382 WT = GST-Cx43-CT^234-382 WT (UniProt P08050); test: co-IP; IF1 anti-Cx43 antibody (aa 360–382) on protein A agarose beads holds the Cx43-CT construct as bait; purified prey added; 1% BSA in 1X PBS, overnight; SDS-PAGE with SYPRO-Ruby staining (tubulin-rhodamine detected by UV); both purified
[5] = biological target: GST-Cx43-CT^240-382 Δ281–300 (UniProt P08050); test: as above
[6] = biological target: GST-Cx43-CT^240-382 Δ301–320 (UniProt P08050); test: as above
[7] = biological target: GST-Cx43-CT^240-382 Δ341–360 (UniProt P08050); test: as above
[8] = biological target: GST-Cx43-CT^244-382 Δ261–280 (UniProt P08050); test: as above
[9] = biological target: GST-tagged Cx43CT residues 316–382 (GST-Cx43-CT^316-382) (UniProt P08050); test: as above

| binding [1] | binding [2] | binding [3] | binding [4] | binding (GST-Cx43-CT^234-382 WT) | binding [5] | binding [6] | binding [7] | binding [8] | binding [9] | Molecule |
| --- | --- | --- | --- | --- | --- | --- | --- | --- | --- | --- |
| binds | binds |  |  |  |  |  |  |  |  | GST-ZO-1^PDZ2 (residues 186–262 of human ZO-1) (from UniProt Q07157 186-262) (domain or fragment) |
| no binding | no binding |  |  |  |  |  |  |  |  | Transferrin (Tfn) (from UniProt P02787 20-698) |
| binds weakly | binds | no binding | no binding | binds | binds | binds | binds | no binding | no binding | Drebrin A 1–300 (Drb^1-300), untagged (domain or fragment, UniProt Q9QXS6 1-300, looked up, Drebrin A residues 1-300; also called drebrin amino acids 1–300; N-terminal fragment of drebrin; source: E. coli Rosetta cells, purified on glutathione-agarose column, GST tag digested and captured with a Thrombin kit) MAGVSFSGHRLELLAAYEEVIREESAADWALYTYEDGSDDLKLAASGEGGLQELSGHFENQKVMYGFCSVKDSQAALPKYVLINWVGEDVPDARKCACASHVAKVAEFFQGVDVIVNASSVEDIDAGAIGQRLSNGLARLSSPVLHRLRLREDENAEPVGTTYQKTDAAVEMKRINREQFWEQAKKEEELRKEEERKKALDARLRFEQERMEQERQEQEERERRYREREQQIEEHRRKQQSLEAEEAKRRLKEQSIFGDQRDEEEESQMKKSESEVEEAAAIIAQRPDNPREFFRQQERV |
